Measured values: patent publication US20090018162A1, “USE OF 6-(3-CHLORO-2-FLUOROBENZYL)-1-[(2S)-1-HYDROXY-3-METHYLBUTAN-2-YL]-7-METHOXY-4-OXO-1,4-DIHYDROQUINOLINE-3-CARBOXYLIC ACID OR SALT THEREOF FOR TREATING RETROVIRUS INFECTION” (priority 2006, published 2009)
Counter-ions that a name gives are not always drawn. Like-named read-outs stand apart in the source and are kept apart here.

Tests used:
HIV-1 clinical isolates = test: microbe, parasite or virus in culture
[1] = tested on: HIV-1 macrophage-tropic virus strains; test: microbe, parasite or virus in culture; conditions: Human immunodeficiency virus 1, Macrophage, read-out: average IC50, drug-sensitive (wild-type) viruses in macrophage cultures, n=3 viruses
[2] = Human immunodeficiency virus 1, CCR5, in Homo sapiens, HIV-1 BR/92/025 (subtype C/C, R5) in PBMCs, modified assay with virus pre-incubation
[3] = Human immunodeficiency virus 1, PBMC, in Homo sapiens, HIV-1 BFC01 (Group O, R5) in PBMCs, modified assay with virus pre-incubation

Row | SMILES | IC50 (HIV-1 clinical isolates; [2]) | IC50 (HIV-1 clinical isolates; [3]) | IC50 (HIV-1 clinical isolates; Human immunodeficiency virus 1, PBMC, in Homo sapiens, read-out: average IC50, drug-sensitive (wild-type) viruses in PBMCs, n=11 viruses) | IC50 [1]
1 | Cc1c(O)cccc1C(=O)N[C@@H](CSc1ccccc1)[C@H](O)CN1C[C@H]2CCCC[C@H]2C[C@H]1C(=O)NC(C)(C)C [Nelfinavir, nelfinavir mesylate] | < 0.1 nM | 0.99 nM | – | –
2 | O=C1Nc2ccc(Cl)cc2[C@@](C#CC2CC2)(C(F)(F)F)O1 [Efavirenz, efavirenz] | 0.3 nM | 0.69 nM | – | –
3 | COc1cc2c(cc1Cc1cccc(Cl)c1F)c(=O)c(C(=O)O)cn2[C@H](CO)C(C)C [Compound I, 6-(3-chloro-2-fluorobenzyl)-1-[(2S)-1-hydroxy-3-methylbutan-2-yl]-7-methoxy-4-oxo-1,4-dihydroquinoline-3-carboxylic acid] | 0.1 nM | 1.17 nM | 0.62 ± 0.41 nM | 0.35 ± 0.3 nM
